# PubChem BioAssay AID662 (National Center for Advancing Translational Sciences (NCATS), 2007)
# The campaign covered roughly 71,000 compounds. About 1,800 (2.5%) were called active. The inconclusive results got no clear call from the source; some entries with a clear call stand among them for comparison. Calls follow the shape of the dose curve; as a rule, active = well fitted activation curve with a large enough effect in the signal ratio, with a control signal flat (not every such curve was filed as active); inconclusive = small, poorly fitted or top-dose-only effect, or effect the other way, or a change in a side signal; inactive = flat fitted curve, though single readings scatter; the % refers to the signal ratio. Where the call is inconclusive, the potency comes from a doubtful curve fit.
# Test: Cell signaling CRE-BLA (Fsk stim); as to activity change, negative = inhibition: % of control where 0% means no effect
# Settings: CHO CRE-bla reporter (cAMP response element driving beta-lactamase), forskolin EC10, beta-lactamase ratio
# How it was run: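 Forskolin analogue NKH 477 at EC10 stimulated CRE-driven beta-lactamase in CHO cells alongside compound dilution series. Beta-lactamase was measured with CCF4, excitation 405 nm, emission ratio 460/530 nm.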
# [1] = activity change, negative = inhibition: at 38.2 µM (top of the series) unless noted
# Potency is read from the fitted curve at half-maximal effect; tags tell the direction and shape of the fitted curve.
smiles,measurement,setting,value
CCCCSc1nc(CCC)cc(=O)[nH]1,Potency,[1],"inconclusive: 10 µM [rising, single point]"
Cc1cc(N2CCN(S(=O)(=O)c3ccccc3)CC2)c2ccccc2n1,Potency,[1],"inconclusive: 0.02 µM [rising, full curve, poor fit]"
O=c1c2ccccc2sc2c(CO)ccc(NCCN3CCCCC3)c12,"activity change, negative = inhibition",[1],inactive: 20.4% [at 7.6 µM]
O=c1c(-c2cc(F)cc(F)c2)nc2cnc(Nc3ccccc3)nc2n1C[C@H]1CCCO1,"activity change, negative = inhibition",[1],inconclusive: 21.4%
COc1ccc(-c2nc(CS(=O)CC(=O)NCCCN3CC(C)CC(C)C3)c(C)o2)cc1OC (stereo not given),"activity change, negative = inhibition",[1],inactive
CCOCCCNC(=O)c1[nH]c(C)c(C(C)=O)c1C,"activity change, negative = inhibition",[1],inconclusive: -11.6%
CC(C)Cn1c(=O)c(C(=O)Nc2ccccc2S(N)(=O)=O)c(O)c2ccccc21,"activity change, negative = inhibition",[1],inconclusive: -16%
CCCCNC(=O)CCC(=O)Nc1ncc(-c2ccc(C)cc2)n1C,"activity change, negative = inhibition",[1],inconclusive: -12.3%
Cc1occc1-c1nnc(SCC(=O)NCc2ccc3c(c2)OCO3)n1CC(C)C,"activity change, negative = inhibition",[1],inactive
COc1ccc(C2C(C#N)=C(N)Oc3n[nH]c(-c4ccccn4)c32)c(OC)c1OC (stereo not given),Potency,[1],"inconclusive: 7.94 µM [rising, partial curve]"
C=C(C)COc1ccc(-c2nc(N)ncc2Oc2ccc(OC)cc2)c(O)c1,Potency,[1],"inconclusive: 25.1 µM [falling, single point]"
COc1ccc2[nH]c(=O)c(CN(CC3CCCO3)C(=O)Nc3ccc(F)cc3)cc2c1 (stereo not given),"activity change, negative = inhibition",[1],inactive
CC(C)COc1ccc(-c2nnc(-c3ccncc3)o2)cc1,"activity change, negative = inhibition",[1],inactive
CN(C)/C=C1\C(=O)c2ccc(N(C)C)nc2CC1c1ccccc1 (stereo not given),Potency,[1],"inconclusive: 12.6 µM [rising, partial curve]"
Cc1c(C(=O)Nc2ccc3oc(-c4cccnc4)nc3c2)oc2ccccc12,Potency,[1],active: 2.51 µM
NS(=O)(=O)c1cc(C(=O)O)c(O)c2ccccc12,"activity change, negative = inhibition",[1],inactive: -17.7% [at 7.6 µM]
CCOC(=O)c1ccc2[nH]cc(C(C)=O)c(=O)c2c1,"activity change, negative = inhibition",[1],inconclusive: 12.5%
O=C(CC(NS(=O)(=O)c1ccc(Cl)cc1)c1ccco1)NCc1ccco1 (stereo not given),"activity change, negative = inhibition",[1],inactive
Brc1c(CSc2nnc(-c3ccco3)o2)nc2ccccn12,Potency,[1],active: 3.16 µM
CNc1nc(NC)nc(-n2c(C(F)(F)F)nc3ccccc32)n1,Potency,[1],active: 12.6 µM
CCCN1Cc2cccc(C(=O)Nc3ccc(CN4CCCC4)cc3)c2C1=O,Potency,[1],"inconclusive: 12.6 µM [rising, single point]"
Cc1cc2cc(CNC(=O)c3cc4ccccc4o3)ccc2n1C,"activity change, negative = inhibition",[1],inactive
O=C(CN1C(=O)CSc2ccccc21)N1CCc2ccccc21,"activity change, negative = inhibition",[1],inconclusive: -15.9%
CCOC(=O)c1c(C)c(C(=O)Nc2cc(OC)ccc2OC)c(C)n1CC,Potency,[1],"inconclusive: 6.31 µM [rising, partial curve]"
COCCNC(=O)c1cc2c(-c3ccc(Cl)cc3)nn(C)c2s1,Potency,[1],active: 7.94 µM
CCOC(=O)Nc1cccc(NC(=O)c2cc(OC)cc(OC)c2)c1,"activity change, negative = inhibition",[1],inconclusive: 6.86%
CC(=O)Nc1ccc(OC[C@@H](O)CNC(C)C)cc1,"activity change, negative = inhibition",[1],inconclusive: -20.8%
same,"activity change, negative = inhibition",at 17.1 µM (top of the series),inactive: 0.725%
CC(=O)N1CC=C2C(C#N)=C(N)C(C#N)(C#N)C(CCc3ccccc3)C2C1 (stereo not given),"activity change, negative = inhibition",[1],inactive
COc1ccc(OC)c(NC(=O)CSc2nc3c(c(=O)n(C)c(=O)n3C)n2C)c1,Potency,[1],active: 2 µM
Cc1ccc(Cl)cc1N1CCN(Cc2nnnn2Cc2ccco2)CC1,"activity change, negative = inhibition",[1],inactive
COc1ccc(C(=O)CSc2nnc(-c3ccccc3)o2)cc1,Potency,[1],"inconclusive: 0.316 µM [falling, single point]"
Cc1cc2n(n1)C(c1ccc(O)cc1)Nc1ccccc1-2 (stereo not given),Potency,[1],"inconclusive: 10 µM [rising, single point]"
COc1ccc(NC(=O)c2cnc(C)cn2)cc1-n1cnnn1,"activity change, negative = inhibition",[1],inactive
CCCCNc1nc(C)nc2c1nc(-c1ccccc1)n2CCN1CCCCC1,Potency,[1],"inconclusive: 10 µM [rising, single point]"
CN(CCNC(=O)c1cccc(N2CCCC2=O)c1)Cc1ccccc1,"activity change, negative = inhibition",[1],inconclusive: -21.3%
CCNc1ncc2nc(-c3ccc(Cl)cc3)c(=O)n(-c3ccccc3)c2n1,Potency,[1],"inconclusive: 1.26 µM [rising, full curve]"
COc1cc(NC(=O)c2noc3c2CCC3)c(OC)cc1Cl,"activity change, negative = inhibition",[1],inactive
CCOC(=O)CSc1nnnn1-c1cc(OC)ccc1OC,"activity change, negative = inhibition",[1],inconclusive: 7.8%
CN=C(Nc1cc(C)nn1CCC#N)c1ccc(F)cc1,"activity change, negative = inhibition",[1],inconclusive: 17%
COc1ccc(Cl)cc1-n1c(=S)sc2c(=O)[nH]c(SCC(=O)NCC3CCCO3)nc21 (stereo not given),"activity change, negative = inhibition",[1],inactive
COC(=O)CCN(C)CCC(=O)OC,"activity change, negative = inhibition",[1],inactive
Cc1cccc(N2CCN(CCNC(=O)c3cc4c(s3)CS(=O)(=O)C4)CC2)c1C,"activity change, negative = inhibition",[1],inactive
CCOC(=O)c1cc(-c2ccc(F)cc2)n(CC(=O)Nc2nccs2)c1C,Potency,[1],"inconclusive: 20 µM [falling, single point]"
CC(C)OC(=O)CSc1nc2cccnc2n1C1CCCCC1,Potency,[1],"inconclusive: 3.16 µM [rising, single point]"
CCOC(=O)c1cncc(NC(=O)c2ccccc2)c1,"activity change, negative = inhibition",[1],inconclusive: 19.8%
CCc1c(C)c2cc(Cl)c(O)c(CN(C)C)c2oc1=O,Potency,[1],active: 10 µM
COc1ccc(NC(=O)N2CCCC3(CCN(C(=O)c4cccc(F)c4)CC3)C2)cc1,"activity change, negative = inhibition",[1],inactive
COc1cccc(-c2nc3ccc(O)cc3c(=O)o2)c1,"activity change, negative = inhibition",[1],inconclusive: -11.3%
CSCCC(NC(=O)c1ccco1)C(=O)OCC(=O)Nc1sccc1C#N (stereo not given),"activity change, negative = inhibition",[1],inactive
COCC(=O)N1CCC2(CCCN(c3ncccn3)C2)CC1,"activity change, negative = inhibition",[1],inactive
O=C(Nc1ccccc1)N(CCCN1CCOCC1)Cc1cc2cc3c(cc2[nH]c1=O)OCCO3,Potency,[1],"inconclusive: 15.8 µM [rising, single point]"
Cc1cc(=O)cc(C)n1-c1ccccc1N1CCOCC1,"activity change, negative = inhibition",[1],inconclusive: 23.8%
Cc1ccc2[nH]c3c(=O)n(CCCN4CCOCC4)cnc3c2c1,"activity change, negative = inhibition",[1],inactive
Nn1c(SCc2cccc3ccccc23)nnc1-c1ccco1,"activity change, negative = inhibition",[1],inconclusive: -9.3%
COc1cc2c(cc1OC)C1=C(C#N)CN(CC(=O)O)CN1CC2,Potency,[1],"inconclusive: 5.01 µM [rising, partial curve]"
COc1ccc(CC(=O)Nc2c3c(nn2-c2cccc(C)c2C)CS(=O)(=O)C3)cc1,"activity change, negative = inhibition",[1],inactive
C=CCn1c(SCc2nc(N)nc(N3CCCCC3)n2)nnc1-c1ccco1,Potency,[1],"inconclusive: 12.6 µM [rising, single point]"
CCCN(CCC)c1nc(NC2CCN(C(=O)OCC)CC2)nc(OC)n1,"activity change, negative = inhibition",[1],inconclusive: -24%
Cc1cc2cc(CN(Cc3ccc4c(c3)OCO4)C(=O)c3ccco3)c(=O)[nH]c2cc1C,Potency,[1],"inconclusive: 12.6 µM [rising, single point]"
O=C1C2C3C=CC(O3)C2C(=O)N1CC(O)c1ccccc1 (stereo not given),"activity change, negative = inhibition",[1],inconclusive: 39.9%
COC(=O)c1ccc(Cl)c(NC(=O)CSc2ncn[nH]2)c1,"activity change, negative = inhibition",[1],inconclusive: 0.937%
CCC(C)Sc1nc2c(c(=O)[nH]c(=O)n2C)n1CC(O)COc1cccc2ccccc12 (stereo not given),Potency,[1],"inconclusive: 10 µM [rising, partial curve]"
O=c1c(-c2ccc(F)cc2)nc2cnc(N3CCOCC3)nc2n1C1CC1,Potency,[1],active: 5.01 µM
CCCC(C(=O)NCc1ccco1)N(C(=O)CNS(=O)(=O)c1ccccc1)c1ccccc1OC (stereo not given),"activity change, negative = inhibition",[1],inactive
CN(C)S(=O)(=O)N1CCc2ccccc2C1,"activity change, negative = inhibition",[1],inconclusive: 2.2% [at 7.6 µM]
Cc1cc(C)c2ccc(N)nc2c1O,"activity change, negative = inhibition",[1],inconclusive: 2.51%
Cc1cc2c(C)cc(=O)oc2c2c1NCCC2,Potency,[1],"inconclusive: 10 µM [rising, partial curve]"
O=C(c1ccccc1C(=O)N1CCN(c2ccccc2F)CC1)N1CCN(c2ccccc2F)CC1,"activity change, negative = inhibition",[1],inconclusive: -18.9%
CCCC1Cc2nc(N3CCCCC3)c(C#N)cc2CO1 (stereo not given),"activity change, negative = inhibition",[1],inconclusive: 13.4%
CSc1nc(N2CCOCC2)c2ccccc2n1,Potency,[1],active: 10 µM
CS(=O)(=O)CCC(C(=O)N1CCOCC1)N1C(=O)c2cc(Cl)c(Cl)cc2C1=O (stereo not given),"activity change, negative = inhibition",[1],inconclusive: -15.9%
CCn1cc(C(=O)N2CCN(Cc3ccc4c(c3)OCO4)CC2)c2cc(OC)c(OC)cc2c1=O,Potency,[1],active: 7.94 µM
Clc1ccccc1-c1nnc2sc(-c3ccccn3)nn12,Potency,[1],"inconclusive: 10 µM [rising, partial curve]"
CC1(C)CC(=O)C(C#N)=C(NCCCO)C1,"activity change, negative = inhibition",[1],inactive
CC(=O)c1sc(NC(=O)c2ccc(Cn3cc(Br)cn3)o2)nc1C,"activity change, negative = inhibition",[1],inconclusive: 16%
CCOC(=O)c1sc2nc(N3CCOCC3)c3c(c2c1N)CCCC3,Potency,[1],"inconclusive: 10 µM [rising, partial curve]"
Cc1ccc(N2C(=O)CC(NCc3ccc4c(c3)OCO4)C2=O)cc1Cl (stereo not given),"activity change, negative = inhibition",[1],inactive
O=C(NCCN1CCN(c2cccc(Cl)c2)CC1)c1cccn2c(=O)c3ccccc3nc12,Potency,[1],"inconclusive: 0.631 µM [rising, full curve, poor fit]"
COCCn1c(=NC(=O)CSC(C)=O)sc2cc(F)ccc21,"activity change, negative = inhibition",[1],inconclusive: 5.98%
CCC(C)Sc1nc2c(cnn2-c2ccc(C)cc2)c(=O)[nH]1 (stereo not given),Potency,[1],active: 1.58 µM
COc1ccc(Br)cc1C(=O)Nc1cccc(-c2nnc(-c3ccco3)o2)c1,Potency,[1],"inconclusive: 2 µM [rising, full curve, poor fit]"
COc1ccc(NS(=O)(=O)c2c(C)[nH]c(=O)[nH]c2=O)c(OC)c1,"activity change, negative = inhibition",[1],inactive
Cc1ccc2c(c1)N(CCC(=O)NCC1COc3ccccc3O1)C(=O)CO2 (stereo not given),Potency,[1],"inconclusive: 3.98 µM [rising, single point]"
Cn1nnnc1SCC(=O)Nc1nc(-c2ccccc2)c(-c2ccccc2)o1,"activity change, negative = inhibition",[1],inconclusive: 1.95%
